Measured values: PubChem BioAssay AID504706 (National Center for Advancing Translational Sciences (NCATS), 2011)
Out of some 320,000 compounds screened, about 200 (0.062%) were called active. The inconclusive results got no clear call from the source; some entries with a clear call stand among them for comparison. Calls follow the shape of the dose curve; as a rule, active = well fitted activation curve with a large enough effect; inconclusive = small, poorly fitted or top-dose-only effect; inactive = no such curve, though single readings can be large or run the other way. No potency is given beside an inconclusive call; the fits are too rough.

Experiment: qHTS assay for re-activators of p53 using a Luc reporter; also: nearly all actives have a fitted effect of over 45% in size
Conditions: H1299 p53-A138V BP100-luciferase reporter, luminescence, 24 h; series mostly up to 92.2 µM
Outline: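 p53-null H1299 cells stably carrying temperature-sensitive p53-A138V and a BP100-luciferase reporter were pinned with compounds (4-point, 1:5 series) and held 24 hrs at 37 deg C. Luminescence was read 10 min after detection reagent.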
Potency is read from the fitted curve at half-maximal effect; tags tell the direction and shape of the fitted curve.

Compound	Potency
O=C1NN(c2ccccc2)C(=O)/C1=C/c1ccc(-c2ccc(C(=O)O)cc2)o1	inactive
N/C(=N\OC(=O)c1cccc(C(F)(F)F)c1)c1cnccn1	inconclusive [activator, full curve]
CNC(=O)COc1coc(CN2CCN(c3ccccc3OC)CC2)cc1=O	inactive
Oc1ccccc1-c1cc(-c2ccccc2)n[nH]1	inconclusive [activator, full curve, poor fit]
[O-]/C(=C(\C(=S)Nc1ccccc1F)[n+]1ccccc1)c1ccc(-c2ccccc2)cc1	inactive
N#Cc1c(/N=C/c2ccco2)oc(-c2ccccc2)c1-c1ccccc1	inactive
COC(=O)COc1cc(OCC(=O)OC)c2c(C)c(Cl)c(=O)oc2c1	inactive
COc1cccc(N=Nc2c(N)[nH][nH]c2=O)c1	inconclusive [activator, partial curve, poor fit]
CCCCn1cnc(C(=O)OCC)c1N	inconclusive [activator, partial curve, poor fit]
Cc1ccc(C(=O)ONc2ccc(N=O)cc2)cc1	inconclusive [activator, full curve, poor fit]
CCN(C(=O)/C=C/c1ccc2c(c1)OCO2)c1ccccc1	inactive
C(=N\Nc1nncc2ccccc12)/c1ccccc1	inconclusive [activator, partial curve, poor fit]
O=C(COc1ccccc1)Nc1nc2cc3c(cc2s1)OCCO3	inconclusive [activator, single point]
O=C(Cn1cc2c(n1)CCCCC2)NC1CCCCCC1	inconclusive [activator, partial curve, poor fit]
CC1(C)Cc2c(cnn2-c2ccc(F)cc2)C(NC(=O)c2ccco2)C1 (stereo unspecified)	inactive
O=C(CSc1nncn1-c1ccccc1)Nc1ccc(F)cc1F	inactive
Cc1cc(C)cc(N=c2c([N+](=O)[O-])nn(-c3ccc4c(c3)OCCO4)n2O)c1	inconclusive [activator, full curve, poor fit]
CCOc1ccc(-c2nc[nH]c2[N+](=O)[O-])cc1	inactive
CCOC(=O)C1CCN(C(=O)c2ccc3c(Cl)c4c(nc3c2)CCCC4)CC1	inconclusive [activator, partial curve, poor fit]
CCN1C(=O)C(=O)N(CC(=O)c2cc(C)n(C3CC3)c2C)C1=O	inconclusive [activator, partial curve, poor fit]
COc1c(O)cc2oc(-c3ccc(O)cc3)cc(=O)c2c1O	inconclusive [activator, partial curve, poor fit]
O=C(Nc1ccccc1C(=O)O)/C(=C/c1ccc(Cl)cc1Cl)NC(=O)c1ccco1	inactive
Cc1ccccc1CC(=O)Nc1ccc2c(c1)CCC2	inconclusive [activator, partial curve, poor fit]
Cc1cccc2cc(/C=N/NC(=O)c3ccncc3)c(Cl)nc12	inactive

Compound	Potency
O=C(COc1ccccc1Br)NC1CCCC1	inconclusive [activator, partial curve]
COc1cccc(NC(=O)c2ccn(C)n2)c1	inconclusive [activator, full curve, poor fit]
Cn1c(O)c(N=NC(=O)c2ccccc2O)c2ccccc21	inconclusive [activator, partial curve, poor fit]
Cc1ccc(C(=O)/C=C/c2ccc3c(c2)OCCO3)c(O)c1	inconclusive [activator, full curve]
N/C(=N\OC(=O)/C=C/c1ccccc1)c1ccc(Cl)cc1	inactive
COc1cccc(N2CCN(C(=O)c3ccc(Cl)c(NC4=NC5CS(=O)(=O)CC5S4)c3)CC2)c1 (stereo unspecified)	inactive
O=C(Cn1nnc(-c2ccc(F)cc2)n1)N1CCCCC1	inactive
CCOC(=O)Cn1ncc(-c2ccccc2)c1N	inconclusive [activator, partial curve, poor fit]
O=C(c1cc2ccccc2oc1=O)N1CCCCCCC1	inconclusive [activator, single point]
CN(C(=O)COC(=O)CNC(=O)c1sc2ccccc2c1Cl)C1CCS(=O)(=O)C1 (stereo unspecified)	inactive
COc1ccccc1NC(=O)c1nnn(CC(=O)Nc2cccc(SC)c2)c1N	inconclusive [activator, partial curve, poor fit]
COc1ccc(-c2cc3ccccc3n2CC(O)CNC(CO)(CO)CO)cc1 (stereo unspecified)	inactive
C=CCn1c(-c2cccs2)nc2ccccc21	inactive
CC1CCC(NC(=O)CN2C(=O)c3cccnc3Oc3ccc(Cl)cc32)CC1 (stereo unspecified)	inconclusive [activator, single point]
O=C(Nc1cccc(F)c1)c1coc(=O)c(Br)c1	inconclusive [activator, single point]
O=C(Nc1ccccc1F)c1ccc([N+](=O)[O-])s1	inconclusive [activator, single point]
COc1ccc(NC2CCCN(C(=O)CCc3cn[nH]c3)C2)cc1 (stereo unspecified)	inconclusive [activator, single point]
O=[N+]([O-])c1cccc(-c2nnc(-c3ccc4c(c3)OCO4)o2)c1	inconclusive [activator, partial curve, poor fit]
CN(C(=O)c1ccc2c(c1)OCO2)C1CCCCC1	inconclusive [activator, partial curve]
COc1ccc(CNC(=O)C[C@H]2C[C@H](C(=O)N3CCOCC3)[C@@]3(CCC4CCCC4)c4[nH]c5ccc(Cl)cc5c4CCN3C2=O)cc1OC	inactive
Cc1cc(NC(=O)COC(=O)c2ccccc2[N+](=O)[O-])no1	inconclusive [activator, single point]
Clc1ccc2c(c1)C(N1CCNCC1)Cc1ccccc1S2 (stereo unspecified)	inactive
O=c1c2ccccc2nnn1CSc1nnc2ccccn12	inconclusive [activator, partial curve, poor fit]
CCc1nnc(NC(=O)c2cc(-c3ccc(C)o3)nc3ccccc23)s1	inconclusive [activator, partial curve, poor fit]

Compound	Potency
COc1ccc(-c2nc3nc(C)cc(C)n3n2)cc1	inconclusive [activator, full curve, poor fit]
O=C(Nc1c(F)cc(F)cc1Br)c1cc(-c2ccc(O)cc2)on1	inconclusive [activator, full curve, poor fit]
O=C(Nc1ccccc1)N1CCc2ccccc2C1	inconclusive [activator, full curve, poor fit]
COc1ccc(NC(=O)N(C)C[C@H]2Oc3c(NC(=O)Nc4ccc5c(c4)OCO5)cccc3C(=O)N([C@H](C)CO)C[C@@H]2C)cc1	inconclusive [activator, single point]
Cc1ccc(C(=O)CSC2=C(C#N)C(c3ccco3)C3=C(CC(C)(C)CC3=O)N2)cc1 (stereo unspecified)	inactive
COc1ccccc1NC(=O)c1oc2ccc(C)cc2c1C	inconclusive [activator, partial curve, poor fit]
O=C(N/N=C/c1ccccc1C(=O)O)c1ccc(COc2cccc3cccnc23)cc1	inconclusive [activator, single point]
Fc1ccc(/C=N/NC(=S)NCCc2ccccc2)cc1F	inactive
COc1ccc(NC(=O)CSc2nnc(-c3ccc(F)cc3)o2)cn1	inconclusive [activator, full curve, poor fit]
CC(Sc1ccc2ccccc2n1)C(=O)O (stereo unspecified)	inconclusive [activator, single point]
COc1ccc(NC(=O)NNC(=O)COc2ccc3cc(Br)ccc3c2)cc1	inconclusive [activator, partial curve, poor fit]
Cc1ccc(Nc2nnns2)cc1C	inconclusive [activator, partial curve, poor fit]
CCCc1cc(N2CCN(c3ccccn3)CC2)n2nc(C)c(-c3ccccc3)c2n1	inactive
O=[N+]([O-])c1ccc(O)c(N=Cc2sc3ccccc3c2O)c1	inconclusive [activator, partial curve, poor fit]
Nc1nc(SCC(=O)c2ccc(Oc3ccccc3)cc2)n[nH]1	inconclusive [activator, partial curve, poor fit]
COc1ccc(C(=O)CSc2nccn2C)cc1	inconclusive [activator, partial curve, poor fit]
O=C(CSc1nnc(Cc2cccs2)n1C1CCCCC1)N1CCN(C(=O)c2ccco2)CC1	inconclusive [activator, partial curve, poor fit]
O=C(Nc1nc2ccccc2s1)C1c2ccccc2Oc2ccccc21	inactive
O=C(NC(=S)N1CCOCC1)c1ccc([N+](=O)[O-])cc1	inactive
C=C(Cl)COc1ccc2c(CCCC)cc(=O)oc2c1	inactive
COc1ccc(NC(=O)c2ccccc2Sc2ccc(NC(C)=O)nc2)cc1	inactive
CC(NC(=S)NC1CCCCC1)c1ccc(C(C)(C)C)cc1 (stereo unspecified)	inconclusive [activator, single point]
O=C(CN1C(=O)C2C3CC(C(Br)C3Br)C2C1=O)N1CCN(Cc2ccccc2)CC1 (stereo unspecified)	inactive
